These results are taken from article PMC12136788.

The chains are these.
T1: UNK ZnF1-3 (human, UniProt Q9C0B0 31-174)
T1 sequence: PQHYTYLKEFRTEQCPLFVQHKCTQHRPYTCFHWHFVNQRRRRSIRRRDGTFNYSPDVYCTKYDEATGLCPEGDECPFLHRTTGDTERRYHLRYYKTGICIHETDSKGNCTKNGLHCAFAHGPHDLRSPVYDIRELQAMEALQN

B1: 40854255_40857228_447_CDS_ENSG00000132872_ENST00000255224|human|control|control (ssRNA)
RNA: GGGAGUUCUACAGUCCGACGAUCGUUAGACUUGGAUGAUUUUCUCUGACAGCAGAUCCAUGCAAAGAGAGAGACUGUGAAGACCAGGCCAAAUGCACUGAAGAUCCCCACCACUGUGGGGAUUUCAUCAAAUUCUUCCCGGCUCAACAGAGGAUUGAGCAUCA
B2: chr7:151048522:151048523:+_ENSG00000013374_ENST00000566856|hu_mus|hu_hu_hu_mus_True|68_68 (ssRNA)
RNA: GGGAGUUCUACAGUCCGACGAUCCUGUUUCUUAUUUAUUACGAUCUUGAUGUAAUUUUCUUGAAAUCCAAAGGUUUCAGCUAUUUGACACCUCAGGUCUCUACCAGUGACAUGCAAGCGGGUCUCCAACAAGCUUUUCUUAUCCAACAGAGGAUUGAGCAUCA
B3: 47180716_47180836_1313_ncRNA_ENSMUSG00000021377_ENSMUST00000138401|mouse|control|control (ssRNA)
RNA: GGGAGUUCUACAGUCCGACGAUCAACCACAUUGAUGACACUUUGAGGGCAAAGCAGAACUGGACAGUCCUCAGUGCCAUCACCACUGAACUCUGCGCUGUCACUGCUGCCUGGAUGAACACUGACAUUUAGUUACAAGUUUAACAACAGAGGAUUGAGCAUCA
B4: chr2:128510325:128510326:-_ENSMUSG00000014355_ENSMUST00000014499|mus_hu|FALSE|FALSE (ssRNA)
RNA: GGGAGUUCUACAGUCCGACGAUCAUAAACUGCCAAUGCCUGGCUUUUACUUCCUUUGCUCCAUAUCACCAUAUUUCCAGCAACAUAGAGUUCCUCAUCAUAGUCCACAUCUUCUCCAAUUUCACUUACUCCUUUCCUUAACUGCAACAGAGGAUUGAGCAUCA
B5: chr7:138125181:138125182:+_ENSMUSG00000006205_ENSMUST00000006367|mus_hu|motif|central (ssRNA)
RNA: GGGAGUUCUACAGUCCGACGAUCGAUUCCAGCUGUCACUUUCAAAGUGUUAAUUCCAAUCACUUCACCGUCCAGGUUUACGGACGGGCCUCCCGAGUUUCCAUAGUUGAUGAUGGCGUCGGUCUGGAUGUAGUCCAUGUCUGACAACAGAGGAUUGAGCAUCA
B6: chr3:179287964:179287965:+_ENSG00000136518_ENST00000429709|hu_hu|hu_hu_hu_mus_True|18_108 (ssRNA)
RNA: GGGAGUUCUACAGUCCGACGAUCCUUUAGAGGUGAAAUGGCCUCCAUGUUCUCCCUGGGCACGCGGAGGGCAUUGGUGUCUAUGUAGUAGGUGGGCCCGCCCUGCUUGCCUUUGUCGCCAUCUAUUUCCAUCAUUGUACUUCCCAACAGAGGAUUGAGCAUCA
B7: 59426904_59434407_190_3pUTR_ENSG00000166889_ENST00000300146|human|control|control (ssRNA)
RNA: GGGAGUUCUACAGUCCGACGAUCUUCAGCCAGGCGCUCAUGUGCUUCCUGCCAAUCAUCAUCAACUGCACCUGACCCAAAUGUAUCAUCAUUGAAUUGAUCAAUCUCUUCAUCUUCUUCUCCCAGUCCCUGAAAUGCAUCUUCCAACAGAGGAUUGAGCAUCA
B8: chr2:228221723:228221724:+_ENSG00000168958_ENST00000354503|hu_hu|FALSE|FALSE (ssRNA)
RNA: GGGAGUUCUACAGUCCGACGAUCGACCAUUUCUCUUUUAGCACGUUCUUUGUUCUCCUCUUCCAGAAGUUGUAGACGUCUAUUUAGUUUGAUUAUCUGUCGUCUUAGUGAAGCUGCAUCUACAACAGUCAGGUCAUCUGACGUCAACAGAGGAUUGAGCAUCA
B9: chr16:32614670:32614671:+_ENSMUSG00000022797_ENSMUST00000023486|mus_mus|FALSE|FALSE (ssRNA)
RNA: GGGAGUUCUACAGUCCGACGAUCUGCAGCCAGUUUCAUCUCCACAUGACUGUUAUCUCCAUCUACUUGCCGAGCAAGGCUAAACCGGGUGUAUGACAAUGGUUCCCCACCAAACAAGUUAGAGAAUGCUGAUCUGGCUUGAUCCAACAGAGGAUUGAGCAUCA
B10: chr2:223789231:223789232:+_ENSG00000123983_ENST00000392066|hu_mus|FALSE|FALSE (ssRNA)
RNA: GGGAGUUCUACAGUCCGACGAUCUUUUGAAAUCUGUUCCAUCUUAUAAUUAUAUGCCAAAAUAAACAAGUUUCGUUGAAAAGCACUCAUUUCAUUCACUUUAUUCAUGACAUUUUUGUAGAUCCGAUCCAUGAUUUCCGGAACCAACAGAGGAUUGAGCAUCA
B11: chr11:100577090:100577091:-_ENSMUSG00000019173_ENSMUST00000107364|mus_hu|FALSE|FALSE (ssRNA)
RNA: GGGAGUUCUACAGUCCGACGAUCCUGCACUGACCCCACUGUCCCCAUAUACAAGGGUUGGGGGGCAAGAGCAUGUGGCUACUCCCAGCAAGGGAAAAUGGGAGAGCAGUAGAAAGGGGAGGAAGUGGGAAGAGCAGAAGAUCACAACAGAGGAUUGAGCAUCA
B12: chr2:202488911:202488912:-_ENSG00000155755_ENST00000286196|hu_mus|hu_hu_hu_mus_False|28_68 (ssRNA)
RNA: GGGAGUUCUACAGUCCGACGAUCAUUGAAACAUUUUUCAUAAUCUCCAGUAGCAUUUCAGCAUUAUUAAUCAAAAACUCAAUUGUAAAUACAUGUAUCUUAUAAAAAUAAAAAUACAAACACGAGUGGGGAGCGCAGGCGCCACAACAGAGGAUUGAGCAUCA
B13: chrX:71549400:71549401:+_ENSMUSG00000019087_ENSMUST00000019231|mus_hu|mus_mus_mus_hu_False|8_28 (ssRNA)
RNA: GGGAGUUCUACAGUCCGACGAUCGCAGUAGGAAGAGGGAAGCUCUUCAGUCCAGUGCGCUGCAGGGUGGGAAAGCAACAACACGGACACCGUCCCACCCUCAACCCUCUCAGGUGUACAGGGUCACAUCUGGGUCAUCAAAGACAACAGAGGAUUGAGCAUCA
B14: chr2:198266515:198266516:-_ENSG00000115524_ENST00000335508|hu_hu|motif|central (ssRNA)
RNA: GGGAGUUCUACAGUCCGACGAUCUUUCAUUUCCUCAUCAGGAGACUGGAAUUCUCGAAUAAGGAUUAACAUCACUUCUCGGGUAUAGUAGUUGGCAUAUUCUGCAUCCAUAAGAGGAAUAAGAUACCCAAUAGCCUUCAAGAACAACAGAGGAUUGAGCAUCA
B15: chr10:121026873:121026874:-_ENSMUSG00000034667_ENSMUST00000039810|mus_mus|motif|central (ssRNA)
RNA: GGGAGUUCUACAGUCCGACGAUCUUCUCUUAUAGAAUACACAUCGGCAUUGAAAAAUUUAAAGAAAUGUAAUGGCGGUCGGUGAAAGAUUACGUUUUGAUUGUUACCCCACAGCUCAUGUGUCUGCAUACACAGAACCAAACACAACAGAGGAUUGAGCAUCA
B16: chr6:57703266:57703267:-_ENSMUSG00000037788_ENSMUST00000114297|mus_mus|motif|central (ssRNA)
RNA: GGGAGUUCUACAGUCCGACGAUCCUGAUUUUCUCAUUUACAAUGUCAGCCCCCUUCCUUGCAGCCCCACUCCCCACCAUACGGCAUAUAAAUAAUCUAGACAUCUUAGCUAUACUUCCUUGCUCUUAGUACACAAGGUCUCAACAACAGAGGAUUGAGCAUCA
B17: chr8:67243003:67243004:-_ENSMUSG00000031605_ENSMUST00000034017|mus_mus|motif|central (ssRNA)
RNA: GGGAGUUCUACAGUCCGACGAUCAUCACUGGAGAUUAAGCUGCACACCUGCUCGAUGCCGAGGUUAAGAAACUCUUCACGGAGUACGACAUCUGCAAAAUGUUGUUCUGCAUACGUGUUGGCCUUAUUCAGGAGGUCUGUGCACAACAGAGGAUUGAGCAUCA
B18: chrX:71549762:71549763:+_ENSMUSG00000019087_ENSMUST00000019231|mus_mus|mus_mus_mus_hu_False|88_98 (ssRNA)
RNA: GGGAGUUCUACAGUCCGACGAUCAAACCCGUGUACUCACUCUUAACACAUCACCCCCACCAGAAAACGAUAACGACAGCCAAGCAGGACAGACAGUUAAGUAGUACUUCCACACUCCCAAACUCAGGGAGCCCUAUAACCUUACAACAGAGGAUUGAGCAUCA
B19: chr7:56126341:56126342:+_ENSG00000146731_ENST00000540286|hu_mus|hu_hu_hu_mus_True|18_38 (ssRNA)
RNA: GGGAGUUCUACAGUCCGACGAUCCAUGUUUCUCCUCUUGGCUCUGCGCAGAGCUACGAUCCCUUCUUUCGCAAGGGCAUCUAAGGAAAAGGGGUCAAUUCCCUUUUGAUUAAUAACAACAAAUCCUUUAUCUGAGUCACCACACAACAGAGGAUUGAGCAUCA
B20: chr7:141445308:141445309:+_ENSG00000106028_ENST00000265304|hu_hu|hu_hu_hu_mus_False|38_48 (ssRNA)
RNA: GGGAGUUCUACAGUCCGACGAUCUAUGAUUGUUGUUGCUUGCCGCCUCACAUUGUUUUUAUCCAUGUACUCGCCAUAGUCCACUUUCCCUUCCAAAUAAAUUCGAGCCCCCUUUUUCACAUACUGAUAUGCCACAUCUCUGAGCAACAGAGGAUUGAGCAUCA
B21: 120012519_120012639_81_5pUTR_ENSMUSG00000061306_ENSMUST00000103018|mouse|control|control (ssRNA)
RNA: GGGAGUUCUACAGUCCGACGAUCAUGGUUCCAGGUUCCCGCCUCCGCCUCCCCAGAGUGAAGCGGGAACCCGGAAGCGCCGCAGGCAACGCUAGCAACACCUCAGCUCCGCUUCGCUGCCUCCGGCACCCAAACUUCCGCCUUCAACAGAGGAUUGAGCAUCA
B22: chr12:48362563:48362564:+_ENSG00000134291_ENST00000256686|hu_hu|hu_hu_hu_mus_False|38_88 (ssRNA)
RNA: GGGAGUUCUACAGUCCGACGAUCUCCGUCAAGCCCUUCGAUAGACCCAUAGACUCUAAACUGUAAUCACUUUGUAUGGGGAAGGAAAAGAAACGCCAACACACUUUCAAAAAGCGGGGGUGGGGUGAGGCGGGAGGGGGAGGUCAACAGAGGAUUGAGCAUCA

This is one part of the list.

The experiment deals with T1, UNK ZnF1-3. In words: nsRBNS (natural sequence RNA bind-n-seq); RBNS binding buffer (assumed for nsRBNS): 25 mM Tris pH 7.5, 150 mM KCl, 3 mM MgCl2, 0.01% Triton X-100, 500 ug/ml BSA, 20 U/ml SUPERase-In, 4 C; UNK is unkempt and MSI1 is Musashi-1; names of the RNAs are library labels; protein concentration not given here; high values mean tight binding.
Consider B1, for which the binding signal was 0.891 enrichment R. On to B2, for which the binding signal stood at 0.645 enrichment R.

Take B3: the binding signal was determined as 0.775 enrichment R.

B4 showed a binding signal of 0.665 enrichment R. In the case of B5 it was 0.538 enrichment R; in that of B6, 0.678 enrichment R. Then B7, with 0.77 enrichment R; and B8, with 0.376 enrichment R; and B9, with 0.928 enrichment R. Molecule B10 displayed a binding signal of 0.469 enrichment R. Turning to B11, the binding signal turned out to be 2.16 enrichment R. Take B12: the binding signal stood at 1.58 enrichment R. Then B13, with 0.798 enrichment R; and B14, with 1.14 enrichment R. As for B15, the binding signal is 2.21 enrichment R. Then B16, with 1.21 enrichment R; and B17, with 0.865 enrichment R. As for B18, the binding signal was found to be 1.65 enrichment R.

As for B19, the binding signal came out at 1.01 enrichment R. For B20, the binding signal is 0.733 enrichment R.

For B21, the binding signal was found to be 0.373 enrichment R.

In the case of B22, the binding signal came out at 2.25 enrichment R.
